PubChem BioAssay (NCATS)
Where “and” joins values, the source holds several entries; their conditions need not be identical. Equal entries are not always repeated. This list was built around the results that the source calls inconclusive (neither active nor inactive); the mix of calls is not that of the screen. A potency beside an inconclusive call is a rough fit, not a confirmed value. Calls of active or inactive are those of the source. Unless noted, the call rests on the fitted dose curve; in most records, active means well fitted curve in the direction sought with a large enough effect; inconclusive means small, poorly fitted or top-dose-only effect, or another doubt; inactive means no such curve, though single readings can be large; an effect the other way counts as inactive or inconclusive.

What was measured:
[1] = qHTS for Inhibitors of Plasmodium falciparum (DD2) proliferation (AID 504314);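 on activity, negative = inhibition: parasite DNA measured by SYBR Green fluorescence after red cell lysis; plate controls were DMSO vehicle for no effect and artemisinin wells for full effect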; settings: P. falciparum Dd2 in erythrocytes, SYBR Green growth, 72 h; activity, negative = inhibition: at 6.11 µM (top of the series)
In short: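 Parasite proliferation measured as SYBR Green signal from Plasmodium DNA, mature erythrocytes lacking DNA. 72 h incubation, 37C; activity scaled between vehicle and 0.29 uM artemisinin, with correction from vehicle-only plates.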

[2] = qHTS for Inhibitors of Plasmodium falciparum (GB4) proliferation (AID 504315); further: nearly all actives have a fitted effect of over 50% in size;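 on activity change, negative = inhibition: 0% = DMSO vehicle and -100% = 0.29 µM artemisinin control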; settings: P. falciparum GB4 in erythrocytes, SYBR Green DNA, 72 h; activity change, negative = inhibition: at 6.7 µM (top of the series)
In short: (§1)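 Parasite growth measured as SYBR Green DNA fluorescence (ex 485, em 535 nm) after overnight lysis following 72 h culture at 37 °C, 0.3% parasitemia, 2.5% hematocrit. Values normalized against DMSO and 0.29 uM artemisinin controls, with plate-stack correction.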

[3] = qHTS for Inhibitors of Plasmodium falciparum (7G8) proliferation (AID 504316); further: nearly all actives have a fitted effect of over 65% in size;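 on activity change, negative = inhibition: 0% = DMSO vehicle and -100% = 0.29 µM artemisinin full kill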; settings: P. falciparum 7G8 in erythrocytes, SYBR Green DNA, 72 h; activity change, negative = inhibition: at 6.7 µM (top of the series)
In short: as §1

[4] = qHTS for Inhibitors of Plasmodium falciparum (HB3) proliferation (AID 504318); further: nearly all actives have a fitted effect of over 60% in size;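 on activity change, negative = inhibition: 0% = DMSO vehicle and -100% = artemisinin control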; settings: P. falciparum HB3 in erythrocytes, SYBR Green DNA, 72 h; activity change, negative = inhibition: at 7.21 µM (top of the series)
In short: as §1

[5] = qHTS for Inhibitors of Plasmodium falciparum (CP250) proliferation (AID 504320);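 on activity change, negative = inhibition: plate controls were DMSO vehicle for no effect and 0.29 µM artemisinin control for full effect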
In short: as §1

[6] = qHTS Assay for Identification of Small Molecule Agonists for Hypoxia Response Element Signaling Pathway (AID 914; active means well fitted activation curve with a large enough effect in the signal ratio, with a control signal flat, not every such curve was filed as active; inconclusive means small, poorly fitted or top-dose-only effect, or effect the other way, or a change in a side signal; the % refers to the signal ratio); settings: ME-180 (cervical carcinoma) HRE-bla reporter, beta-lactamase ratio, CoCl2, 17 h; activation: stronger effect = higher value
In short: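 HRE-bla ME-180 cells with beta-lactamase reporter under hypoxia response element, compounds with EC50 CoCl2 for 17 hours at 37 C. CCF4 substrate, 460nm/530nm emission ratio gave %Activity; AC50 from titration series.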
Potency means the concentration at half of the fitted maximal effect; tags describe the fitted curve by direction and shape or compound fluorescence and quenching.

| SMILES | Potency [1] | Potency [2] | Potency [3] | Potency [4] | Potency [5] | Potency [6] | activity, negative = inhibition [1] |
| --- | --- | --- | --- | --- | --- | --- | --- |
| COc1ccc(-c2nc(-c3ccccc3)c(NCc3ccccc3)o2)cc1 | inconclusive: 1.69 µM [inhibitor, partial curve, poor fit] | inconclusive: 2.39 µM [inhibitor, single point] | inconclusive: 1690 nM [inhibitor, single point] | inconclusive: 2.94 µM [inhibitor, single point] | inconclusive: 2130 nM [inhibitor, single point] | – | – |
| C=C(CO[C@@H]1C=C[C@@H](c2ccccc2)O[C@@H]1COC)c1ccccc1 | inconclusive: 1.34 µM [inhibitor, partial curve] | active: 1.51 µM | inconclusive: 1510 nM [inhibitor, single point] | inconclusive: 1.51 µM [inhibitor, partial curve] | inconclusive: 3010 nM [inhibitor, single point] | – | – |
| C=CCN1c2ccccc2[C@]23C[C@@H](C(=O)OC)N(S(=O)(=O)c4ccc(C)cc4)C2=NC(C(=O)OC)=C(C(=O)OC)[C@H]13 | inconclusive: 0.0023 µM [inhibitor, full curve, poor fit] | inconclusive: 4.26 µM [inhibitor, single point] | inconclusive: 2130 nM [inhibitor, single point] | inconclusive: 4.26 µM [inhibitor, single point] | inconclusive: 4260 nM [inhibitor, single point] | – | – |
| C=CC1=C2C=C(C3CC3)N(Cc3ccc4c(c3)OCO4)C=C2C(=O)C(C)(OC(=O)c2ccco2)C1=O (stereo not drawn) | inconclusive: 1.5 µM [inhibitor, partial curve, poor fit] | inconclusive: 1.51 µM [inhibitor, single point] | inconclusive: 2130 nM [inhibitor, single point] | inconclusive: 1.51 µM [inhibitor, single point] | inactive | – | – |
| CC#C[C@H](C)[C@@H](OCOC)[C@H](C[C@H](C)Cc1cc(Br)cc(OCc2ccccc2)c1OC)OC | inconclusive: 2.67 µM [inhibitor, partial curve] | active: 1.51 µM | inconclusive: 1900 nM [inhibitor, single point] | active: 1.69 µM | inconclusive: 2390 nM [inhibitor, single point] | – | – |
| CCCNC(=O)OC[C@H]1O[C@H](CCON=C(C)CCN2CCCc3nc(C)c(C)cc32)C=C[C@H]1Oc1ccc(OC)cc1 | inconclusive: 1.69 µM [inhibitor, partial curve] | active: 1.9 µM | active: 1350 nM | active: 1.69 µM | inconclusive: 3380 nM [inhibitor, single point] | – | – |
| CC(C)=NO[C@@H](C)CN1CCCc2nc(C)c(C)cc21 | inconclusive: 3.78 µM [inhibitor, single point] | inconclusive: 1.9 µM [inhibitor, single point] | inconclusive: 2130 nM [inhibitor, single point] | inconclusive: 1.9 µM [inhibitor, partial curve] | inconclusive: 1900 nM [inhibitor, single point] | inconclusive: 316 nM [activator, partial curve] | – |
| COCOc1ccc(Br)cc1C(=O)C=Cc1ccc2c(c1)OCO2 | inconclusive: 3.78 µM [inhibitor, single point] | inconclusive: 1.69 µM [inhibitor, partial curve] | inconclusive: 1690 nM [inhibitor, partial curve] | inconclusive: 2.94 µM [inhibitor, partial curve, poor fit] | inconclusive: 3010 nM [inhibitor, single point] | – | – |
| COc1cc2c(cc1OC)[C@@H]1O[C@](CCCCN3C(=O)c4ccccc4C3=O)(C2)Oc2c1c(=O)oc1ccccc21 | active: 1.5 µM | active: 1.69 µM | inconclusive: 757 nM [inhibitor, partial curve, poor fit] | active: 2.39 µM | inconclusive: 1690 nM [inhibitor, single point] | – | – |
| O=C1c2ccccc2C(=O)N1CCCC[C@]12Cc3c(ccc4ccccc34)[C@H](O1)c1c(cc(-c3ccccc3)oc1=O)O2 | active: 0.753 µM | active: 0.536 µM | active: 379 nM | active: 0.536 µM | active: 1510 nM | – | – |
| O=C1N[C@H](Cc2ccccc2)C(=O)N1Cc1cccc2ccccc12 | inactive | inactive | – | inactive | – | – | – |
| CCCCC1=CC2=CC(=O)C(C)(OC(=O)CC)C(=O)C2=CN1Cc1ccc2c(c1)OCO2 (stereo not drawn) | – | inconclusive: 0.135 µM [activator, full curve, poor fit] | – | inactive | – | – | inactive: 2.72% [at 1.12 µM] |
| COC(=O)N[C@@H](c1cccc(F)c1)C(C(C)=O)C(=O)OC (stereo partly drawn) | inactive | inactive | – | inactive and inconclusive: 4.3 nM [activator, full curve, poor fit] | – | – | – |
| COC(=O)N1C(C2CC2)=Cc2ccccc2C1CC(C)=O (stereo not drawn) | inconclusive: 1.34 µM [inhibitor, partial curve, poor fit] and inconclusive: 948 nM [inhibitor, partial curve] | inconclusive: 2.13 µM [inhibitor, partial curve, poor fit] and inconclusive: 0.5 nM [activator] | – | inconclusive: 1.47 µM [inhibitor, partial curve, poor fit] and inconclusive: 1.2 µM [inhibitor, partial curve, poor fit] | – | – | – |
| COC(=O)CCC(=O)OC1(C)C(=O)C2=CN(c3ccccc3)C(c3ccc(OC)cc3)=CC2=C(Br)C1=O (stereo not drawn) | – | inactive | – | inconclusive: 1.9 µM [inhibitor, single point] | – | – | inactive: 1.63% [at 1.12 µM] |
| CCCCCCCC1=Cc2ccccc2C(CC(=O)c2ccccc2)N1C(=O)OC (stereo not drawn) | inconclusive: 1.19 µM [inhibitor, partial curve, poor fit] | inconclusive: 3.79 µM [inhibitor, single point] and inconclusive: 4.26 µM [inhibitor, single point] | inconclusive: 1900 nM [inhibitor, single point] | – | inactive and inconclusive: 3.01 µM [inhibitor, partial curve, poor fit] | – | – |
| Cc1ccc(S(=O)(=O)N2CCc3nc(-c4ccccc4)c4c(c3C2)CO[C@@H](C)C4)cc1 | – | inconclusive: 0.0239 µM [inhibitor, full curve] | inactive | – | inconclusive: 0.5 nM [activator] | – | inactive: 4.19% [at 1.12 µM] |
| COC(=O)N[C@H](CC(C)=O)c1cccs1 | inactive | inactive | – | inactive | – | – | – |
| CCN1C(=NCCc2cccs2)N[C@@H](CCc2ccccc2)[C@H](C(=O)NCCc2cccs2)[C@H]1C | inconclusive: 1.5 µM [inhibitor, partial curve, poor fit] | inconclusive: 1.51 µM [inhibitor, single point] | inconclusive: 1510 nM [inhibitor, partial curve, poor fit] | – | inconclusive: 675 nM [inhibitor, full curve] | – | – |
| CCOC(=O)CN1C(=O)[C@]2(O[C@H](COc3ccccc3)CC3=CCCC32)c2c(Br)cccc21 (stereo partly drawn) | inconclusive: 4.24 µM [inhibitor, single point] | inconclusive: 2.13 µM [inhibitor, single point] | – | inconclusive: 1.69 µM [inhibitor, partial curve] | – | – | – |
| CCN1C(=NCc2cccc(C(F)(F)F)c2)NC(c2cccc(F)c2)C(C(=O)OC)=C1C (stereo not drawn) | inconclusive: 1.89 µM [inhibitor, partial curve] | active: 0.757 µM | inconclusive: 757 nM [inhibitor, single point] | – | inconclusive: 675 nM [inhibitor, partial curve, poor fit] | – | – |
| CCN1C(=NCC(C)C)NC(c2cccc(F)c2)C(C(=O)OC)=C1C (stereo not drawn) | inconclusive: 2.67 µM [inhibitor, single point] | inconclusive: 2.39 µM [inhibitor, partial curve, poor fit] | – | inconclusive: 4.78 µM [inhibitor, partial curve, poor fit] | – | – | – |
| CCN1C(N(C)CCc2ccc(Br)cc2)=NC(c2ccccc2)C(C(=O)OC)=C1C (stereo not drawn) | inconclusive: 1.34 µM [inhibitor, single point] | inconclusive: 4.26 µM [inhibitor, single point] | inactive | – | inconclusive: 1900 nM [inhibitor, single point] | – | – |
| CC12C=C(C=Cc3ccc(Br)cc3)C(C)(C1)C(c1ccc(Br)cc1)CC2=O (stereo not drawn) | active: 1.5 µM | active: 1.69 µM | active: 1690 nM | – | inconclusive: 4260 nM [inhibitor, single point] | – | – |
| CC1=CC[C@@H](COc2ccccc2)O[C@@]2(C1)C(=O)N(Cc1ccc(F)cc1)c1cccc(Br)c12 | inconclusive: 4.24 µM [inhibitor, partial curve, poor fit] | inconclusive: 2.39 µM [inhibitor, single point] | inconclusive: 1510 nM [inhibitor, single point] | – | inconclusive: 4260 nM [inhibitor, single point] | – | – |
